Measured values: article PMC4336329 (PLoS ONE, 2015)
About 2,200 (0.71%) of roughly 310,000 compounds showed an effect of 50% or more. Effects have a minus sign here. The list shows a part of the results.

Molecular target: human ether-à-go-go-related gene (hERG) potassium channel (human, UniProt Q12809)
Assay: primary screen, population patch clamp on CHO cells stably expressing hERG

Sequence of human ether-à-go-go-related gene (hERG) potassium channel (Q12809 whole entry, looked up): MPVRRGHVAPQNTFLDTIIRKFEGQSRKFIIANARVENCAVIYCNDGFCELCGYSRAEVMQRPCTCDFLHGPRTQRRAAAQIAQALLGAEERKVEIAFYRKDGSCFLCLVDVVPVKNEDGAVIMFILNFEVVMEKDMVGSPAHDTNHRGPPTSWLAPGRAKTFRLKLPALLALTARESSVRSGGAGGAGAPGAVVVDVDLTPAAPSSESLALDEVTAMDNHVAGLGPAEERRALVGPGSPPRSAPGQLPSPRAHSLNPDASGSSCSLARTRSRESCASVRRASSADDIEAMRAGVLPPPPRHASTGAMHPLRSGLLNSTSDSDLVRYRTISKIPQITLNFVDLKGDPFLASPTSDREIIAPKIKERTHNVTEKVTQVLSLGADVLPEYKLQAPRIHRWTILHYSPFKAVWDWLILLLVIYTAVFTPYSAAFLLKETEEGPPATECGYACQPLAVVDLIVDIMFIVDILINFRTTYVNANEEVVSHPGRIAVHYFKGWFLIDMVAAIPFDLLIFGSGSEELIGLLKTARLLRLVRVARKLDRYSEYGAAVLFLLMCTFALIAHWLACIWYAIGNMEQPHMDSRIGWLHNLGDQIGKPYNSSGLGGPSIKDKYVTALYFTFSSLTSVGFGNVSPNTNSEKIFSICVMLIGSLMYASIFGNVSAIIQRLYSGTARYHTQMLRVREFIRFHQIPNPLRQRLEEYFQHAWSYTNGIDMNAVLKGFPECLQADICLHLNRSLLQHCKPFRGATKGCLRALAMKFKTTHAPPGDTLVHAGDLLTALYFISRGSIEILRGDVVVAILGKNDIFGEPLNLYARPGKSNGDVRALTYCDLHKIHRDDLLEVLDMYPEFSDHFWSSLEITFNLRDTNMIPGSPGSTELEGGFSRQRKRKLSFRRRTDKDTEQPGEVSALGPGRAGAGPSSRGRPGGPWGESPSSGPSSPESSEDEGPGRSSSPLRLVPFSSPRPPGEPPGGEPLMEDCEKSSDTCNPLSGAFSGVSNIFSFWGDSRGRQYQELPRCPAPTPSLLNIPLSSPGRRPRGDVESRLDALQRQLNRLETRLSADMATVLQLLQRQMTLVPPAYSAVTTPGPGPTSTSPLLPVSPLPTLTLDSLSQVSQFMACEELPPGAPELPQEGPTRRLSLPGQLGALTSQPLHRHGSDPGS

SMILES	hERG current change (%, negative = inhibition) at 1uM [%]
Cc1ccc2nc(/C(C#N)=C\c3ccc([N+](=O)[O-])o3)[nH]c2c1	17.2
Cc1ccc(NC(=O)CCNC(=O)c2ccccc2Cl)cc1S(=O)(=O)N1CCOCC1	-1.19
COc1cc(/C=N/NC(N)=O)ccc1OC(=O)c1ccco1	8.18
Cc1c(NS(C)(=O)=O)cccc1-c1nc2cccnc2s1	3.25
O=C(NNc1ncc(C(F)(F)F)cc1Cl)c1ccc(Cl)c(Cl)c1	6.62
OCCCNc1nc(-c2ccccc2)c2cc(Br)ccc2n1	14.4
Cc1cc(C)n(Cc2ccc(F)cc2)c(=O)c1C#N	9.92
COc1cccc(N(C(=O)c2cccs2)c2nc3ccccc3s2)c1	1.87
O=C(NNC1=C(C(=O)C(F)(F)F)CCC1)c1cccc(O)c1	1.03
COc1ccc(NC(=O)CC2SC(N3CCOCC3)=NC2=O)c(OC)c1 (stereo not drawn)	1.84
CN1C(=O)N(C)C2(c3ccccc3)Nn3c(s/c(=C/c4ccco4)c3=O)=NC12c1ccccc1 (stereo not drawn)	-2.44
O=C(NCCc1ccccc1)C(c1ccccc1)N(C(=O)c1csnn1)C1CC1 (stereo not drawn)	7.04
CC(C)(C)c1ccc(-c2nnc(SCC(=O)O)n2N)cc1	3.8
O=C(COc1cccc2cccnc12)N/N=C1\SCC(=O)N1Cc1ccccc1	-5.44
COC(=O)c1ccc2c(c1)S(=O)(=O)NC(=NCCCN1CCOCC1)S2.Cl	12.1
CC(=O)Nc1ccc(NC(=O)CSc2nc(N)c(NC(=O)c3ccco3)c(=O)[nH]2)cc1	17.6
COc1cccc(OC)c1OCCCOc1cccc2cccnc12	13.9
O=C(COc1ccccc1-c1ccccc1)N/N=C/c1ccc2ccccc2c1	11.3
Cc1cc(-c2ccc(C(C)C)c(S(=O)(=O)Nc3cc(C)on3)c2)on1	10.2
Cc1cc(C)cc(-n2c(SC(C)C(=O)NCc3ccc4c(c3)OCO4)nc3ccccc3c2=O)c1 (stereo not drawn)	12.1
O=C(Nc1cc(Cl)ccn1)C1CCN(S(=O)(=O)c2cccs2)CC1	5.16
C=CCn1c(O)c(C(CC)=Nc2ccc3c(c2)CCC3)c(=O)[nH]c1=O	7.05
CC(C)(C)CC(=O)Nc1ccc(-c2nnc3n2CCCCC3)cc1	17.3
O=C(c1cc([N+](=O)[O-])ccc1N1CCOCC1)N1CCN(c2ccc([N+](=O)[O-])cc2)CC1	-74
